Measurements as given in patent publication US20090111786A1, “Compounds that Prevent Macrophage Apoptosis and Uses Thereof” (priority 2004, published 2009).

Test system: pro- and anti-apoptotic genes in macrophages
Test: Expression profiling of apoptosis-linked genes (Codelink Mouse Uniset 1 / Affymetrix U74A microarrays)
Conditions: 1 μM each, 16 h

In the case of O=S(=O)(c1ccccc1)N(CC(F)(F)F)c1ccc(C(O)(C(F)(F)F)C(F)(F)F)cc1 [T1317], the “effects on expression of genes with functional annotations linked to apoptosis” value is reported as “relatively modest effects”.
